Assay [1] deals with T1, hCD22-Fc, captured via the anti-human IgG FcGamma fragment-specific antibody (human, UniProt P20273 20-687, limits assumed).
T1 construct: not shown: Fc part of the bought fusion protein; not described
T1 sequence (looked up): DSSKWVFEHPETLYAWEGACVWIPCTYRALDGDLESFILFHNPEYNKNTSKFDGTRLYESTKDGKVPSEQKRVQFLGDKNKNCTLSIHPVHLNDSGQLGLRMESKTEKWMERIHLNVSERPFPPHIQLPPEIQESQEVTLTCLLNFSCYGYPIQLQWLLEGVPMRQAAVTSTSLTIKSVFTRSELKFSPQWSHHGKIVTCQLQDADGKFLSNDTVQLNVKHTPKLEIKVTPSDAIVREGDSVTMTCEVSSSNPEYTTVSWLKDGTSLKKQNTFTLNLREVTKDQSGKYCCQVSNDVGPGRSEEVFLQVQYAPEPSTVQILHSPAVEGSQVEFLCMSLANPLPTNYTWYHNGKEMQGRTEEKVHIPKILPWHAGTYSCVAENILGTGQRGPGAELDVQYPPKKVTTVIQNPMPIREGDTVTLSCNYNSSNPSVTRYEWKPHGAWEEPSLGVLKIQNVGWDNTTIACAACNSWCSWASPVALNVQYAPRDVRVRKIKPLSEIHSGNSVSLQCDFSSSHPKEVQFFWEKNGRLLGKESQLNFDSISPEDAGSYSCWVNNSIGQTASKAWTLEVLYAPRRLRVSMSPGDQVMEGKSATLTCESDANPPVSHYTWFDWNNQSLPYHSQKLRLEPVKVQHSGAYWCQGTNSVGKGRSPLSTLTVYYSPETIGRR
Briefly: ELISA, hCD22-Fc captured at 1 µg/ml, mutein dilution series. A general note: ELISA stands for enzyme-linked immunosorbent assay.

For assay [2], the target named is T2, hCD33-Fc (R&D) (human, UniProt P20138 18-259).
T2 construct: extracellular domain; Bought from R&D (printed as R&D Research and as R&D Systems); not shown: Fc part of the bought fusion protein; not described
Briefly: SPR (BIAcore X), hCD33-Fc (2000 RU) captured via anti-human IgG Fc antibody on CM5 chip, mutein injected at 5 µM. Here is the method:
(§1) 14000 response units (RU) AffiniPure mouse anti-human IgG Fc Gamma fragment-specific antibody (Jackson Immunoresearch) were coupled by amine coupling to a CM5 sensor chip (Biacore) according to the manufacturers' recommendations. 3000RU hCD33-Fc (R&D research) were captured to this surface by injecting 10 μl of a 0.2 mg/ml hCD33-Fc solution at a flow rate of 2 μl/min. BBS (10 mM HEPES, 150 mM NaCl, 2 mM EDTA, 0.005% v/v Tween pH 7.4) was used as running buffer. All samples were diluted in this running buffer. The TLPC muteins, obtained in example 29, were added to the hCD33-Fc captured surface by injection of a 40 μl sample with a 20 μl/min flow rate. The solutions of added TLPC mutein were 10 μM and 6.4 μM for S101.2 A20 and S101.2 O08, respectively. The surface of the chip was regenerated with 10 mM HCl followed by recoupling of hCD33-Fc before the next lipocalin mutein was measured. All measurements were performed on a BIAcore X apparatus.
On the technique in general: Surface plasmon resonance follows binding to a sensor surface in real time, without labels.

For assay [3], the target named is T2, hCD33-Fc (R&D). Nature of the assay: SPR (BIAcore X), hCD33-Fc (3000 RU) captured via anti-human IgG Fc antibody on CM5 chip, mutein injected at 10 µM. Here is the method: as §1
Assay [4] addresses T2, hCD33-Fc (R&D). Briefly: ELISA on hCD33-Fc (1 µg/ml), mutein dilution series, Streptactin-HRP detection; apparent KD from curve fit. As to the method: After another washing step, a dilution series of the mutein S76.1H10, obtained in Example 9, in PBST covering an appropriate concentration rage was added to the coated hCD22 and the control proteins hCD33-Fc, HSA and hIgG1 and incubated for 1 h at RT. Bound mutein was subsequently detected via Streptactin-HRP conjugate (IBA) and the fluorogenic HRP-substrate QuantaBlu™ (PIERCE) according to the respective manufacturers' recommendations. After an appropriate incubation time at room temperature, fluorescence was excited at a wavelength of 320 nm (±12.5 nm) and measured at 430 nm (±17.5 nm) in a GENiosPlus plate reader.
The targets hCD33-Fc (1 μg/ml, R&D Research) and hCD22-Fc (1 μg/ml, Peprtoech) were captured via the AffiniPure mouse anti-human IgG FcGamma fragment-specific antibody for 1 h at RT. Afterwards, the ELISA was performed with the TLPC muteins from Example 29 as described in Example 10.

For assay [5], the target named is T2, hCD33-Fc (R&D). Briefly: SPR (BIAcore X), hCD33-Fc (3000 RU) captured via anti-human IgG Fc antibody on CM5 chip, mutein injected at 6.4 µM. As to the method:
as §1

For assay [6], the target named is T3, human serum albumin (HSA, Sigma) (human, UniProt P02768 25-609).
T3 construct: Control protein; also called HAS; human serum albumine
Nature of the assay: ELISA, control coated, mutein dilution series.

For assay [7], the target named is T4, CD25-Fc (recombinant human IL-2 R alpha/Fc Chimera, R&D systems) (human, UniProt P01589 22-240).
T4 construct: extracellular domain; Bought chimera, held on the plate by the capture mAb; also called captured CD25-Fc; Fc part of the bought chimera not given; not described
T4 sequence (looked up): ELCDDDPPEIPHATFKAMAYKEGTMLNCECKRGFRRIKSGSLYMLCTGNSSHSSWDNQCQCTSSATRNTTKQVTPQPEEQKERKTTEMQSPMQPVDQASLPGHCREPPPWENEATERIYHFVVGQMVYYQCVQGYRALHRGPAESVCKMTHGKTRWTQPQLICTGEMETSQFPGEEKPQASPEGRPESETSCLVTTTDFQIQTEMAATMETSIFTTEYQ
Nature of the assay: ELISA, CD25-Fc (2.5 µg/ml) captured via capture mAb, mutein dilution series, Streptactin-HRP detection; apparent KD from curve fit. Here is the method:
(§2) For this purpose, the wells of a black Fluotrac 600 microtiter plate (Greiner; 384 well) were coated with the capture mAb (Mouse Anti-Human IgG, Fcgamma Fragment Specific; Jackson ImmunoResearch) at a concentration of 5 μg/ml for 1 h at RT or OIN at 4° C. After a washing step and a subsequent blocking step with 3% w/v milk powder in PBST, CD25-Fc at a concentration of 5 μg/ml was added and incubated for one hour at RT. In parallel, the unrelated proteins capture mAb, HSA and FCS (Fetal Calf Serum; Invitrogen) were coated at concentrations of 5 μg/ml, 10 μl/ml and 10 μg/ml, respectively. In addition, human IgG Fc fragment (Accurate Chemical) was captured at a concentration of 5 μg/ml via the capture mAb coated at 5 μg/ml.
After another washing step, a dilution series of the mutein S67.7 C6 in PBST covering an appropriate concentration range was added to the captured CD25-Fc and the control proteins capture mAb, HSA, FCS and captured human IgG Fc fragment and incubated for 1 h at RT. Bound mutein was subsequently detected via Streptactin-HRP conjugate (MBA) and the fluorogenic HRP-substrate QuantaBlu™ (PIERCE) according to the respective manufacturers' recommendations. After an appropriate incubation time at room temperature, fluorescence was excited at a wavelength of 320 nm (±12.5 nm) and measured at 430 nm (±17.5 nm) in a GENiosPlus plate reader. […]

Assay [8] deals with T4, CD25-Fc (recombinant human IL-2 R …). Described as above. Here is the method: as §2
After another washing step, a dilution series of the mutein S67.7 C6 in PBST covering an appropriate concentration range was added to the captured CD25-Fc and the control proteins capture mAb, HSA, FCS and captured human IgG Fc fragment and incubated for 1 h at RT. Bound mutein was subsequently detected via Streptactin-HRP conjugate (MBA) and the fluorogenic HRP-substrate QuantaBlu™ (PIERCE) according to the respective manufacturers' recommendations. After an appropriate incubation time at room temperature, fluorescence was excited at a wavelength of 320 nm (±12.5 nm) and measured at 430 nm (±17.5 nm) in a GENiosPlus plate reader.
The assay was performed as described in Example 14, except that 2.5 μg/ml CD25-Fc and 2.5 μg/ml human IgG Fc fragment were used for capturing.
This is another data set of the same source.

Numbering of substitutions follows the chain as printed. Like-named read-outs stand apart in the source and are kept apart here.

Broadly, the koff is the first-order rate constant of dissociation. Low values mean a long-lived complex, high ones a short-lived complex. The term kon denotes a measure of how fast the partners come together. Read a high kon as faster complex formation.

T2 sequence (P20138 18-259): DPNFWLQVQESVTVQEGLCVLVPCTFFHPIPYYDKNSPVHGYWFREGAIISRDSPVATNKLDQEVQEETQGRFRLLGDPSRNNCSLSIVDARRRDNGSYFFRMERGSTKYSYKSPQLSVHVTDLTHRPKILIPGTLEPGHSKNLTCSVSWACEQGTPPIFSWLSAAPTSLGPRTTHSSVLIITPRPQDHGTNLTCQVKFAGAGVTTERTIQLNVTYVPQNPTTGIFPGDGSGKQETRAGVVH
T3 sequence (P02768 25-609 limits assumed): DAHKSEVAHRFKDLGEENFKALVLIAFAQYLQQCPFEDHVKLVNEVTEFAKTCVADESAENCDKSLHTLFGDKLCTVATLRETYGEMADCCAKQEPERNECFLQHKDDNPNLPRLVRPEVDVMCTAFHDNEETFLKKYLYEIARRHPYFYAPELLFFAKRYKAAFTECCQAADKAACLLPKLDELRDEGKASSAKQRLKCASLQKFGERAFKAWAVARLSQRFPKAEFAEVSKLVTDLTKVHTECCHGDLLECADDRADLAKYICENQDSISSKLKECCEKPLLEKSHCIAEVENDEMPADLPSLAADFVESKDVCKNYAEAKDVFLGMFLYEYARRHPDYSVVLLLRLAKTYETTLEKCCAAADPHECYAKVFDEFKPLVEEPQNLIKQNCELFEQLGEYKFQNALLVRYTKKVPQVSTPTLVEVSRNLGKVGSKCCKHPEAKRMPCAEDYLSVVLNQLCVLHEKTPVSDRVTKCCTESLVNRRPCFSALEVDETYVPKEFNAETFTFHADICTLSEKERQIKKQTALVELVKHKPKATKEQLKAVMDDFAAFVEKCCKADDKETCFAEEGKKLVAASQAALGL

B1: TLPC mutein S100.1 I08, dimeric fraction (designed binder)
chain: DASMTGGQQMGASDEEIQDVPGTWYLKAMTVGSGSICTCSESVTPMTLTTLEGGNLEAKVTMVVRGRCQEVKAVLEKTDEPGKYTADGGNHVAYIIRSHVKDHYIFYSEGEVMGLPVRGVQLVGRDPKNNLEALEDFEKAAGARGLSTESILIPRQSETCSPGSAWSHPQFEK
notes: this is the dimeric fraction of the size exclusion chromatography; also called CD33 S100.1 I08 (dimer); CD33 S100.1 I08
For the molecule B1, in assay [1], the binding result is recorded as “no binding”. In the assay with hCD33-Fc (R&D) [2], this molecule registered a Kd of 57 nM, a koff of 0.00085 s⁻¹ and a kon of 15000 M⁻¹ s⁻¹.

B2: TLPC mutein S100.1 I08, monomeric fraction (designed binder)
chain: B1 chain
notes: They are in wild-type Tlpc numbering, not counted on the entry; also called CD33 S100.1 I08 (monomer)
B2: the binding result in assay [1] is listed as “no binding”.

B3: TLPC mutein S101.2 A20 (designed binder)
chain: DASMTGGQQMGASDEEIQDVPGTWYLKAMTVVHGVHDLFLESVTPMTLTTLEGGNLEAKVTMFGNGRCQEVNAVLEKTDEPGKYTADGGNHVAYIIRSHVKDHYIFYSEGEHMGWTVRGVQLVGRDPKNNLEALEDFEKAAGARGLSTESILIPRQSETCSPGSAWSHPQFEK
notes: Made from pTLPC14, with N-terminal T7-tag and C-terminal Strep-tag II; also called CD33 S101.2 A20
For the molecule B3, the binding result in assay [1] was “no binding”. In addition, in the assay with hCD33-Fc (R&D) [3], the Kd came to 87 nM, the off-rate (koff) was determined as 0.002 s⁻¹ and the kon was 23000 M⁻¹ s⁻¹. Further, in the assay with hCD33-Fc (R&D) [4], the Kd worked out at 5.2 nM.

B4: TLPC mutein S101.2 O08, monomeric fraction (designed binder)
chain: DASMTGGQQMGASDEEIQDVPGTWYLKAMTVPDLSLTLQATAESVTPMTLTTLEGGNLEAKVTMFGYGRCQEVKAVLEKTDEPGKYTADGGNHVAYIIRSHVKDHYIFYSEGELMGVLVRGVQLVGRDPKNNLEALEDFEKAAGARGLSTESILIPRQSETCSPGSAWSHPQFEK
notes: Made from pTLPC14, with N-terminal T7-tag and C-terminal Strep-tag II; also called S101.2 008; CD33 S101.2 O08 (monomer)
B4: the binding result in assay [1] is listed as “no binding”. Further, in the assay with hCD33-Fc (R&D) [4], the Kd is 187 nM.

B5: TLPC mutein S101.2 O08, dimeric fraction (designed binder)
chain: B4 chain
notes: Same polypeptide as the monomer; this is the dimeric fraction of the size exclusion chromatography; also called CD33 S101.2 O08 (dimer)
On to B5, for which the binding result in assay [1] is reported as “no binding”. In the assay with hCD33-Fc (R&D) [4], the Kd was 83 nM.

B6: TLPC mutein S101.2 O08 (BIAcore; fraction not stated) (designed binder)
chain: B4 chain
notes: Same polypeptide as m36 and m37; also called CD33 S101.2 O08; S101.2 008
In the assay with hCD33-Fc (R&D) [5], B6 returned a Kd of 146 nM, a dissociation rate constant (koff) of 0.0019 s⁻¹ and an association rate constant (kon) of 13000 M⁻¹ s⁻¹.

B7: TLPC mutein F92.8 M1.2 E15, dimeric fraction (designed binder)
chain 1: DGGVGRRGLSGTWYLKAMAVDREFPEMNLESVTPMTLTGLAGGDLGVKVTMLISGRCQEVKAVLEGTNELDKYTADGGKHVAYIIHSHVTDHLILYSEGQLHGKPVRGVKLVGRDPKNNLEALEDFEKAAGARGLSTESILIPRQSETCSPGSAWSHPQFEK
chain 2: B7 chain 1
modifications: This is a homodimer from the size-exclusion column. The patent does not say whether the dimer is non-covalent or disulfide-linked.
notes: Same polypeptide as the monomer; this is the dimeric peak of the size exclusion column
In the case of B7, the binding result in assay [6] is “no binding”. The Kd in assay [7] was 6 nM.

B8: TLPC mutein S99.4 F15 (designed binder)
chain: DGGVGRRGLSGTWYLKAMTVDRESPEMNLESVTPMTLTGLAGGDLEAKVTMLISGRCQEVKAVLEGTNELDKYTADGGKHVAYIIHPHVTDHLIFYSEGQLHGKPVRGVKLVGRDPKNNLEALEDFEKAAGARGLSTESILIPRQSETCSPGDASMTGGQQMGSAWSHPQFEK
notes: Made from pTLPC8, with C-terminal T7 tag and Strep-tag II; monomeric fractions were used; also called S99.4 P15
B8: the binding result in assay [6] is on record as “no binding”. The Kd in assay [8] is 22 nM.

B9: TLPC mutein S99.3 C13 (designed binder)
chain: B8 chain with V63A, A82V
notes: Made from pTLPC8, with C-terminal T7 tag and Strep-tag II; monomeric fractions were used
For the molecule B9, the binding result in assay [6] is listed as “no binding”. In addition, the Kd in assay [8] was determined as 307 nM.

B10: TLPC mutein S99.3 H24 (designed binder)
chain: B8 chain with R6K, S24F, N28D
notes: as for B9
As to B10, in assay [6], the binding result is recorded as “no binding”. The Kd in assay [8] was found to be 302 nM.

The values above are taken from US20070224633A1 (Pieris, published 2007).
